# In article PMC6212790:
# The other results are listed elsewhere or left out. At the low end of the ranking the order means little.
# Biological target: T1, GST-Rok-C97-191 (UniProt O34857)
# T1 sequence: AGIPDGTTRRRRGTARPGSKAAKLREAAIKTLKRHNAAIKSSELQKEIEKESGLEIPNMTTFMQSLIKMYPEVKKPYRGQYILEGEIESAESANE
# Assay: protein binding microarray;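 note: rank score from −0.5 (least bound) to 0.5 (best bound)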
# Conditions: Rok is a gene silencer of Bacillus subtilis; high values mean tight binding; most listed sequences are background and not binding sites; double strand, one strand shown
row,Sequence,binding signal
1,TGCCCGCA,-0.0332 E-score
2,ATCCTCAC,-0.197 E-score
3,CTAACCAG,-0.00926 E-score
4,ACATCTGA,0.247 E-score
5,CCCCAGAA,-0.248 E-score
6,CCTTCAGA,-0.274 E-score
7,ATCGCTGC,0.00433 E-score
8,CAAAGTAC,-0.0306 E-score
9,GCATCGAC,0.00759 E-score
10,AACAGGGC,-0.197 E-score
11,CGCCGGAG,-0.109 E-score
12,GAGCCCCA,-0.312 E-score
13,GACCAGAA,-0.0288 E-score
14,CTGTAGTC,0.103 E-score
15,CGCCCAAG,-0.243 E-score
16,CGATCCAA,-0.0118 E-score
17,CAATGAAC,-0.11 E-score
18,GCGAGTGA,-0.116 E-score
19,AGCGACGG,-0.135 E-score
20,ATACATAC,0.338 E-score
21,CATCTTAC,0.168 E-score
22,TAAGCCTA,-0.156 E-score
23,GACGCGCA,-0.24 E-score
24,ACGGGCTG,-0.124 E-score
25,AGATGGAA,-0.144 E-score

row,Sequence,binding signal
1,CCGCCTGA,-0.202 E-score
2,ATATAATA,0.446 E-score
3,ATCCGAAT,0.0824 E-score
4,CCATTGAC,-0.042 E-score
5,CGCTGGGC,-0.304 E-score
6,CAGATTAC,-0.0715 E-score
7,CCGTGCCA,-0.205 E-score
8,CACAGTTC,0.177 E-score
9,GAGAGTGA,-0.0704 E-score
10,AGAGAAGG,-0.195 E-score
11,CTCTAACA,0.0111 E-score
12,ACGGAGAT,0.0377 E-score
13,CAGGTAAC,0.0142 E-score
14,CGTTAGAA,0.0172 E-score
15,ACTGTATG,0.149 E-score
16,GGAATTAA,0.172 E-score
17,AGTTCCAA,-0.0246 E-score
18,ACTTGGGC,-0.148 E-score
19,AATGTGCT,0.0613 E-score
20,AAGGCTTG,-0.177 E-score
21,CCGCCCAG,-0.329 E-score
22,CTACCGAA,0.257 E-score
23,ATCCAAAC,0.00297 E-score
24,CTCAGGAA,-0.0257 E-score
25,ATTTATCC,0.138 E-score

row,Sequence,binding signal
1,CTAGGTAC,0.132 E-score
2,TAGGAAGA,0.212 E-score
3,GGGTAGCA,-0.148 E-score
4,ATCTTTAC,0.21 E-score
5,AAGAAGGT,-0.0263 E-score
6,AGAAACGC,0.0486 E-score
7,CACACTAC,0.16 E-score
8,GCCCCTTA,-0.453 E-score
9,ACGATTTA,0.216 E-score
10,AGTTTCCC,0.14 E-score
11,AAACTACC,0.473 E-score
12,AATAATTA,0.318 E-score
13,TCCTGAGA,-0.0446 E-score
14,ATCACCGG,-0.025 E-score
15,ATTTAAAG,-0.0376 E-score
16,AGTACGTG,0.101 E-score
17,GGAGACCA,-0.0113 E-score
18,AATTCTCA,0.0734 E-score
19,GGCTTTCA,-0.292 E-score
20,CTAGATTC,0.166 E-score
21,CGTACAAG,-0.00507 E-score
22,GCCTAACA,-0.0272 E-score
23,CTTCTACA,0.273 E-score
24,AGGGCGGA,-0.315 E-score
25,CGCGCCCC,-0.341 E-score

row,Sequence,binding signal
1,ACGTGTGA,-0.16 E-score
2,GACCTTAA,0.0334 E-score
3,ACCTACTC,0.0493 E-score
4,CTCCTCTC,-0.174 E-score
5,TGGCTAAA,0.112 E-score
6,GACAGGGA,-0.0489 E-score
7,GGTGAGAC,-0.087 E-score
8,GGAACGGA,-0.249 E-score
9,GGAGTAAA,0.000261 E-score
10,AAGTTAGC,0.139 E-score
11,CTTTGTCC,-0.101 E-score
12,CAATCATC,-0.103 E-score
13,GAGTTCGC,-0.172 E-score
14,ACTATAAG,0.249 E-score
15,CGCGCTAG,0.0524 E-score
16,TATAACCA,0.293 E-score
17,CATGTCTC,-0.0561 E-score
18,AAACCTCT,0.121 E-score
19,AACGACGG,-0.0673 E-score
20,AGCAGGGG,-0.19 E-score
21,AGGTTTGA,0.00877 E-score
22,AAACCGCG,-0.0204 E-score
23,ACTCATAA,0.00776 E-score
24,GGGATCGA,-0.163 E-score
25,AAGAGGTG,-0.0835 E-score

row,Sequence,binding signal
1,CCTTACCG,-0.103 E-score
2,GATCGTAC,0.1 E-score
3,ACCCATGC,-0.182 E-score
4,CACCGATG,-0.0652 E-score
5,CGACGCCC,-0.24 E-score
6,CCGCGACA,-0.149 E-score
7,TCTCGAGA,0.0362 E-score
8,AAGAGCCC,-0.31 E-score
9,GACAAATC,-0.0545 E-score
10,CGCGGGCA,-0.256 E-score
11,CAAGGTTC,-0.111 E-score
12,ACACTAAG,-0.14 E-score
13,CGGTACGA,-0.195 E-score
14,CAAATCGA,0.131 E-score
15,ACTCCAAT,-0.0489 E-score
16,ATCCAAGG,-0.138 E-score
17,ACCAGTAG,0.259 E-score
18,ACTGCTCC,-0.00368 E-score
19,AGAAGTTG,0.0563 E-score
20,AGCGCAGA,-0.067 E-score
21,AGAAATCG,-0.0981 E-score
22,ATGTGAAA,0.119 E-score
23,AAGATTCG,-0.0808 E-score
24,ATCTCTAA,0.106 E-score
25,AAGCGATG,-0.0686 E-score

row,Sequence,binding signal
1,GATGTACA,0.29 E-score
2,CACTCATG,-0.324 E-score
3,GAACAAGA,-0.0434 E-score
4,AACTATCA,0.369 E-score
5,AGTCGAAT,-0.159 E-score
6,CTGCCTTC,-0.104 E-score
7,CCCAACGG,-0.186 E-score
8,GTAAGAGA,-0.0585 E-score
9,GGCTGTAA,0.0224 E-score
10,CCCTGCGG,-0.367 E-score
11,CGGAGAGA,-0.168 E-score
12,ACGGCTAG,0.0611 E-score
13,GAGTATAC,0.184 E-score
14,AATCCACA,0.0662 E-score
15,ACCGTTGG,-0.173 E-score
16,AATCCGAC,-0.0946 E-score
17,AAACTGGT,0.0422 E-score
18,AGAAGCCT,-0.183 E-score
19,GTGGTAAC,0.142 E-score
20,ACAAGGTC,-0.191 E-score
21,GATAGCAC,0.0324 E-score
22,ATTTGGCA,0.0819 E-score
23,CTCCTTTA,-0.215 E-score
24,GACTAACA,-0.122 E-score
25,GAGTCCAC,-0.309 E-score

row,Sequence,binding signal
1,TGCTTCCA,-0.238 E-score
2,AGCTCAAG,0.109 E-score
3,CGAACAAC,-0.0735 E-score
4,CTGAACTA,0.148 E-score
5,CATTAATC,0.11 E-score
6,CGACCCCC,-0.233 E-score
7,ACTGTCGC,-0.0494 E-score
8,GAGTTGGA,-0.115 E-score
9,CGTGCGAC,-0.132 E-score
10,CGGTCTAC,-0.0738 E-score
11,ATTCCTCC,0.0246 E-score
12,AAGGACAT,-0.097 E-score
13,ACCCTCGG,-0.306 E-score
14,TTCAAAAA,-0.0543 E-score
15,CGTCATGA,-0.14 E-score
16,GAGGCTGA,-0.165 E-score
17,ATATCTGC,0.0868 E-score
18,ACATCTAC,0.23 E-score
19,CTTAGATC,0.0963 E-score
20,CATATTTA,0.282 E-score
21,CCCTGGTA,-0.0735 E-score
22,ATCCGGTA,0.148 E-score
